The data scatter; read single values as rough.
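Also: [psi-pin-] Saccharomyces cerevisiae expressing SupN fusions, induced by 100 µM Cu2SO4, selected 7 d at 30 °C without adenine and uracil, scored by deep sequencing of output versus input.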

The nature of the first series: amyloid nucleation score relative to library mode (yeast Sup35 reporter selection) (log enrichment difference); higher = more amyloid nucleation; sequences are the first 22 residues of the Bri2 peptide extended by up to 12 random residues. As to conditions: random library (experiment): 1;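 active = nucleation score significantly above 0 at FDR 0.05; inactive = not significantly above 0 or absent from output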.
For the sequence EASNCFAIRHFENKFAVETLICVVQLRMTHVNVL, the amyloid nucleation score was -0.25.

EASNCFAIRHFENKFAVETLICVVQYNVLHTDAG showed an amyloid nucleation score of 6.49. The same measure, in the same setting: then EASNCFAIRHFENKFAVETLICVVRKGLVVLWVW, with “inactive”. Turning to EASNCFAIRHFENKFAVETLICVVRMACRINNRS, the amyloid nucleation score entry was “inactive”.

As to EASNCFAIRHFENKFAVETLICVVRP, the amyloid nucleation score result was “inactive”. The same measure, in the same setting: then EASNCFAIRHFENKFAVETLICVVRQGRRESGT, with “inactive”; and EASNCFAIRHFENKFAVETLICVVRRGRQQNTAC, with “inactive”; and EASNCFAIRHFENKFAVETLICVVRVAKPSASTG, with “inactive”. With EASNCFAIRHFENKFAVETLICVVRVPGAFVVR, the amyloid nucleation score entry is “inactive”. For the sequence EASNCFAIRHFENKFAVETLICVVRWRGYGGLWR, the amyloid nucleation score result was “inactive”. On the same count and under the same terms, then EASNCFAIRHFENKFAVETLICVVSD, with “inactive”; and EASNCFAIRHFENKFAVETLICVVSF, with “inactive”. Still for that read-out and setting: then EASNCFAIRHFENKFAVETLICVVSHNNFEVVNV, with 7.29; and EASNCFAIRHFENKFAVETLICVVSHVMASYVEG, with “inactive”. On the same count and under the same terms, then EASNCFAIRHFENKFAVETLICVVSNI, with “inactive”; and EASNCFAIRHFENKFAVETLICVVSSLVYMTDSV, with “inactive”. Turning to EASNCFAIRHFENKFAVETLICVVTHGGARYTGY, the amyloid nucleation score was -0.00976. On the same count and under the same terms, then EASNCFAIRHFENKFAVETLICVVTSSTMTRGLG, with 3.14. As for EASNCFAIRHFENKFAVETLICVVTWRGGPVASW, the amyloid nucleation score result is “inactive”. Still for that read-out and setting: then EASNCFAIRHFENKFAVETLICVVTYNIS, with “inactive”. For EASNCFAIRHFENKFAVETLICVVVGERCNASCS, the amyloid nucleation score was 4.4. Same read-out and setting: then EASNCFAIRHFENKFAVETLICVVVLAGGGLVRC, with 3.36; and EASNCFAIRHFENKFAVETLICVVVMVTDSSGGT, with 3.41. Still for that read-out and setting: then EASNCFAIRHFENKFAVETLICVVVMWGQAWMGR, with -0.163; and EASNCFAIRHFENKFAVETLICVVVWHVVGYV, with “inactive”. The same measure, in the same setting: then EASNCFAIRHFENKFAVETLICVVVWRS, with “inactive”; and EASNCFAIRHFENKFAVETLICVVWCVGKRFCRR, with 5.62; and EASNCFAIRHFENKFAVETLICVVWIR, with “inactive”.

Take EASNCFAIRHFENKFAVETLICVVWRWWMSGSKG: the amyloid nucleation score entry was “inactive”. In the case of EASNCFAIRHFENKFAVETLICVVWSRCDCWRVG, the amyloid nucleation score entry was “inactive”. Same read-out and setting: then EASNCFAIRHFENKFAVETLICVVWVRYRGAGQL, with 2.53. For the sequence EASNCFAIRHFENKFAVETLICVVWWCKNVCVLI, the amyloid nucleation score result was “inactive”. Same read-out and setting: then EASNCFAIRHFENKFAVETLICVVYCY, with 0.747; and EASNCFAIRHFENKFAVETLICVVYDFVRDRFGE, with 3.92. In the case of EASNCFAIRHFENKFAVETLICVVYKLVYIRSHL, the amyloid nucleation score result is “inactive”. EASNCFAIRHFENKFAVETLICVVYLAVPARGDG: the amyloid nucleation score entry is “inactive”.

The series is the same for the next values; noted with them: random library (experiment): 2.
For EASNCFAIRHFENKFAVETLICVVQFDMSVPFGQ, the amyloid nucleation score result was “inactive”. For the sequence EASNCFAIRHFENKFAVETLICVVQISNGHVNNG, the amyloid nucleation score came to 9.52. Same read-out and setting: then EASNCFAIRHFENKFAVETLICVVRCIGVCGLAC, with “inactive”. As for EASNCFAIRHFENKFAVETLICVVRLSKVRLVDI, the amyloid nucleation score entry was “inactive”. Take EASNCFAIRHFENKFAVETLICVVRSVN: the amyloid nucleation score result was “inactive”. As to EASNCFAIRHFENKFAVETLICVVRVLCLPNGWL, the amyloid nucleation score entry is “inactive”. Consider EASNCFAIRHFENKFAVETLICVVSSIF, for which the amyloid nucleation score result was “inactive”. As to EASNCFAIRHFENKFAVETLICVVSWEKSLPRWQ, the amyloid nucleation score is -0.14. In turn, EASNCFAIRHFENKFAVETLICVVSYRGYVCARY registered an amyloid nucleation score of 3.97. On to EASNCFAIRHFENKFAVETLICVVTC, for which the amyloid nucleation score entry was “inactive”. On the same count and under the same terms, then EASNCFAIRHFENKFAVETLICVVTIINTHGHSR, with “inactive”.

On to EASNCFAIRHFENKFAVETLICVVTKTTLLLNYG, for which the amyloid nucleation score result was “inactive”. Regarding EASNCFAIRHFENKFAVETLICVVTS, the amyloid nucleation score result was “inactive”. With EASNCFAIRHFENKFAVETLICVVV, the amyloid nucleation score turned out to be 7.33.

As for EASNCFAIRHFENKFAVETLICVVVF, the amyloid nucleation score entry is “inactive”. EASNCFAIRHFENKFAVETLICVVVFYSANRSRQ: the amyloid nucleation score entry was “inactive”. With EASNCFAIRHFENKFAVETLICVVVRAVMRLTWV, the amyloid nucleation score entry is “inactive”. Same read-out and setting: then EASNCFAIRHFENKFAVETLICVVVRESVLVLWC, with “inactive”. On to EASNCFAIRHFENKFAVETLICVVVWADW, for which the amyloid nucleation score result is “inactive”.

In turn, EASNCFAIRHFENKFAVETLICVVYNAEECSSKV had an amyloid nucleation score of 6.73.

Still in this series, the particulars now being: random library (experiment): 3.
On to EASNCFAIRHFENKFAVETLICVVRFFKLVMPVW, for which the amyloid nucleation score result was “inactive”.

With EASNCFAIRHFENKFAVETLICVVRFMRTCCCGC, the amyloid nucleation score was 2.71.

As for EASNCFAIRHFENKFAVETLICVVRHGGIMVDSG, the amyloid nucleation score result was “inactive”. As to EASNCFAIRHFENKFAVETLICVVRKRREPVRVM, the amyloid nucleation score result is “inactive”. For EASNCFAIRHFENKFAVETLICVVRPVK, the amyloid nucleation score result was “inactive”. Still for that read-out and setting: then EASNCFAIRHFENKFAVETLICVVSCY, with “inactive”; and EASNCFAIRHFENKFAVETLICVVSEWLRSSVCG, with “inactive”. On the same count and under the same terms, then EASNCFAIRHFENKFAVETLICVVSGTVWVFRGR, with 0.0651; and EASNCFAIRHFENKFAVETLICVVSKTYSDTRYS, with 3.99; and EASNCFAIRHFENKFAVETLICVVTCFHRAMRVE, with “inactive”.

Regarding EASNCFAIRHFENKFAVETLICVVTYFWQLGVKP, the amyloid nucleation score result was “inactive”.

For EASNCFAIRHFENKFAVETLICVVVIGAPRFQVW, the amyloid nucleation score entry is “inactive”.

As to EASNCFAIRHFENKFAVETLICVVVLLGVDVRLC, the amyloid nucleation score result is “inactive”. Same read-out and setting: then EASNCFAIRHFENKFAVETLICVVWAMNLAILRG, with “inactive”; and EASNCFAIRHFENKFAVETLICVVWVQTVVCA, with “inactive”. As for EASNCFAIRHFENKFAVETLICVVYGA, the amyloid nucleation score came out at 5.21.

Consider EASNCFAIRHFENKFAVETLICVVYSSLLCNSTG, for which the amyloid nucleation score result was “inactive”. Same read-out and setting: then EASNCFAIRHFENKFAVETLICVVYYVAPLKFEM, with “inactive”.

The values are drawn from the supplement of paper PMC12067230.
